# Data from a collection of fitness landscapes (doi:10.1126/science.1257360).
# This is one part of the list.
# B1: PhoQ; a variant is named by its letters at X, in order, P23837 (parent)
# chain: MKKLLRLFFPLSLRVRFLLATAAVVLVLSLAYGMVALIGYSVSFDKTTFRLLRGESNLFYTLAKWENNKLHVELPENIDKQSPTMTLIYDENGQLLWAQRDVPWLMKMIQPDWLKSNGFHEIEADVNDTSLLLSGDHSIQQQLQEVREDDDDAEMTHSVAVNVYPATSRMPKLTIVVVDTIPVELKSSYMVWSWFIYVLSANLLLVIPLLWVAAWWSLRPIEALAKEVRELEEHNRELLNPATTRELTSLVRNLNRLLKSERERYDKYRTTLTDLTHSLKTPLXXLQXXLRSLRSEKMSVSDAEPVMLEQISRISQQIGYYLHRASMRGGTLLSRELHPVAPLLDNLTSALNKVYQRKGVNISLDISPEISFVGEQNDFVEVMGNVLDNACKYCLEFVEISARQTDEHLYIVVEDDGPGIPLSKREVIFDRGQRVDTLRPGQGVGLAVAREITEQYEGKIVAGESMLGGARMEVIFGRQHSAPKDE
# Variants of: B1
# Assay: enrichment ratio after two sorts for PhoP signalling (ratio (wild type AVST 3.29)); higher = more functional
# Conditions: with PhoP (E. coli)
row,Variant,enrichment ratio
1,TITY,≤ 0.25
2,DLKL,≤ 0.25
3,DWRL,≤ 0.25
4,ECLP,≤ 0.25
5,KFSQ,≤ 0.25
6,ICME,≤ 0.25
7,VFCR,≤ 0.25
8,INFL,≤ 0.25
9,VNWC,≤ 0.25
10,NVPP,≤ 0.25
11,INDD,≤ 0.25
12,YISF,0.417
13,YCMY,≤ 0.25
14,IDCI,≤ 0.25
15,MQCW,≤ 0.25
16,VWTE,≤ 0.25
17,NASS,≤ 0.25
18,KKRI,≤ 0.25
19,HIFC,≤ 0.25
20,RRCQ,≤ 0.25
21,RWHI,≤ 0.25
22,DNIS,≤ 0.25
23,TMHE,≤ 0.25
24,LPDH,≤ 0.25
25,NQDT,≤ 0.25
26,MPGS,≤ 0.25

row,Variant,enrichment ratio
1,YLAF,≤ 0.25
2,FFTK,≤ 0.25
3,YPVM,≤ 0.25
4,PISF,≤ 0.25
5,NESY,≤ 0.25
6,SGSN,13.3
7,EPWP,≤ 0.25
8,LDVH,≤ 0.25
9,KGMV,≤ 0.25
10,IHYM,≤ 0.25
11,DGEP,≤ 0.25
12,MAIN,≤ 0.25
13,PHSR,≤ 0.25
14,GREN,≤ 0.25
15,PSAF,≤ 0.25
16,DQLS,≤ 0.25
17,PDYG,≤ 0.25
18,SFLT,≤ 0.25
19,LTLC,≤ 0.25
20,DIRA,≤ 0.25
21,ACTP,≤ 0.25
22,IEIS,≤ 0.25
23,IPLP,≤ 0.25
24,ELHI,≤ 0.25
25,NFEA,≤ 0.25
26,NSIK,≤ 0.25

row,Variant,enrichment ratio
1,NIYT,≤ 0.25
2,IPKN,≤ 0.25
3,DNHM,≤ 0.25
4,TVGT,5
5,MVLM,9.33
6,DGKA,≤ 0.25
7,VDNQ,≤ 0.25
8,MYPG,≤ 0.25
9,GQWI,≤ 0.25
10,PDFF,≤ 0.25
11,MDTV,≤ 0.25
12,VHKC,≤ 0.25
13,DTLQ,0.616
14,LWHS,≤ 0.25
15,LRFK,≤ 0.25
16,VWTS,≤ 0.25
17,EAAD,≤ 0.25
18,VGKP,≤ 0.25
19,SDYK,≤ 0.25
20,MQGH,≤ 0.25
21,EYDM,≤ 0.25
22,QHRD,≤ 0.25
23,ECFN,≤ 0.25
24,STYH,≤ 0.25
25,TIWP,≤ 0.25
26,IVSH,≤ 0.25

row,Variant,enrichment ratio
1,MMMP,≤ 0.25
2,YFDM,≤ 0.25
3,AVGT,≤ 0.25
4,DFTT,≤ 0.25
5,LLAM,0.662
6,GWGL,≤ 0.25
7,MLRY,0.894
8,TYYH,≤ 0.25
9,EIYM,≤ 0.25
10,RPGV,≤ 0.25
11,SRSW,≤ 0.25
12,QSMC,10.1
13,RMQL,≤ 0.25
14,TSEA,≤ 0.25
15,MTTG,≤ 0.25
16,MEVP,≤ 0.25
17,WGGQ,≤ 0.25
18,FVCG,≤ 0.25
19,DDPL,≤ 0.25
20,EFVN,1.44
21,HWTS,≤ 0.25
22,WIHA,≤ 0.25
23,QLHD,≤ 0.25
24,NSVH,≤ 0.25
25,PIEW,≤ 0.25
26,YSFI,≤ 0.25

row,Variant,enrichment ratio
1,LSVR,≤ 0.25
2,ADFP,≤ 0.25
3,VCPW,≤ 0.25
4,KEIC,≤ 0.25
5,HRLH,≤ 0.25
6,FIHG,≤ 0.25
7,TVCL,1.67
8,PSFW,≤ 0.25
9,RPWC,≤ 0.25
10,TQIF,≤ 0.25
11,VDVA,≤ 0.25
12,KQHA,≤ 0.25
13,YYKW,≤ 0.25
14,LDKS,≤ 0.25
15,ARRA,≤ 0.25
16,PQST,≤ 0.25
17,VHWK,≤ 0.25
18,NYTC,≤ 0.25
19,DGQL,≤ 0.25
20,WQPD,≤ 0.25
21,DGCM,≤ 0.25
22,AKVS,13.5
23,GNCF,6.9
24,AMVH,5.86
25,FHPK,≤ 0.25
26,NATR,≤ 0.25

row,Variant,enrichment ratio
1,RYNI,≤ 0.25
2,MCVH,≤ 0.25
3,LLND,≤ 0.25
4,WYGF,≤ 0.25
5,PCHM,≤ 0.25
6,PGDQ,≤ 0.25
7,DGWM,≤ 0.25
8,GHAV,≤ 0.25
9,FSEP,≤ 0.25
10,IETM,≤ 0.25
11,IYYE,≤ 0.25
12,YSWK,≤ 0.25
13,THTG,8.26
14,IADP,≤ 0.25
15,QTNM,≤ 0.25
16,VNGL,≤ 0.25
17,CGGF,≤ 0.25
18,AVCM,15.4
19,PNKG,≤ 0.25
20,ENPA,≤ 0.25
21,SHDS,≤ 0.25
22,EIPV,≤ 0.25
23,VESM,0.706
